Results as given in the supplement of paper PMC8728848.
This is one part of the list.

How the values were obtained:
Experiment in all cases: glycan array binding signal (z-score within array); higher = stronger binding
Details in all cases: glycan notation: IUPAC condensed, linker removed
[1] = target: Fuc(a1-2)Gal(b1-4)[Fuc(a1-3)]GlcNAc
Procedure, shortened: (§1)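 Glycan array binding is given as a within-array Z-score, which can be read as non-binding when negative. The arrays, 3228 of them, came from the Consortium for Functional Glycomics database and were retained only where the protein sequence was available. Z-scores were averaged across arrays of the same protein sequence at different concentrations or buffers and across linkers.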

[2] = target: Fuc(a1-2)Gal(b1-4)[Fuc(a1-3)]GlcNAc(b1-2)Man(a1-3)[Fuc(a1-2)Gal(b1-4)[Fuc(a1-3)]GlcNAc(b1-2)Man(a1-6)]Man(b1-4)GlcNAc(b1-4)[Fuc(a1-6)]GlcNAc
Procedure, shortened: as §1

[3] = target: Fuc(a1-2)Gal(b1-4)[Fuc(a1-3)]GlcNAc(b1-2)[Fuc(a1-2)Gal(b1-4)[Fuc(a1-3)]GlcNAc(b1-4)]Man(a1-3)[Fuc(a1-2)Gal(b1-4)[Fuc(a1-3)]GlcNAc(b1-2)Man(a1-6)]Man(b1-4)GlcNAc(b1-4)GlcNAc
Procedure, shortened: as §1

[4] = target: Fuc(a1-2)Gal(b1-4)[Fuc(a1-3)]GlcNAc(b1-3)Gal(b1-4)[Fuc(a1-3)]GlcNAc
Procedure, shortened: as §1

[5] = target: Fuc(a1-2)Gal(b1-4)[Fuc(a1-3)]GlcNAc(b1-3)Gal(b1-4)[Fuc(a1-3)]GlcNAc(b1-3)Gal(b1-4)[Fuc(a1-3)]GlcNAc
Procedure, shortened: as §1

[6] = target: Fuc(a1-2)Gal(b1-4)[Fuc(a1-3)]GlcNAc(b1-3)GalNAc
Procedure, shortened: as §1

[7] = target: Fuc(a1-2)Gal(b1-4)[Fuc(a1-3)]GlcNAc(b1-3)[Neu5Ac(a2-6)Gal(b1-4)GlcNAc(b1-6)]Gal(b1-4)Glc
Procedure, shortened: as §1

[8] = target: Fuc(a1-2)Gal3S(b1-4)GlcNAc
Procedure, shortened: as §1

[9] = target: Fuc(a1-2)Gal6S(b1-3)GlcNAc
Procedure, shortened: as §1

[10] = target: Fuc(a1-2)Gal6S(b1-3)GlcNAc6S
Procedure, shortened: as §1

Fuc(a1-2)Gal6S(b1-4)Glc = target: Fuc(a1-2)Gal6S(b1-4)Glc
Procedure, shortened: as §1

[11] = target: Fuc(a1-2)Gal6S(b1-4)Glc6S
Procedure, shortened: as §1

Fuc(a1-2)GlcNAc = target: Fuc(a1-2)GlcNAc
Procedure, shortened: as §1

Fuc(a1-2)[Gal(a1-3)]Gal = target: Fuc(a1-2)[Gal(a1-3)]Gal
Procedure, shortened: as §1

[12] = target: Fuc(a1-2)[Gal(a1-3)]Gal(b1-3)GalNAc
Procedure, shortened: as §1

[13] = target: Fuc(a1-2)[Gal(a1-3)]Gal(b1-3)GalNAc(b1-3)Gal(a1-4)Gal(b1-4)Glc
Procedure, shortened: as §1

[14] = target: Fuc(a1-2)[Gal(a1-3)]Gal(b1-3)GlcNAc
Procedure, shortened: as §1

[15] = target: Fuc(a1-2)[Gal(a1-3)]Gal(b1-3)GlcNAc(b1-2)Man(a1-3)[Fuc(a1-2)[Gal(a1-3)]Gal(b1-3)GlcNAc(b1-2)Man(a1-6)]Man(b1-4)GlcNAc(b1-4)GlcNAc
Procedure, shortened: as §1

[16] = target: Fuc(a1-2)[Gal(a1-3)]Gal(b1-3)GlcNAc(b1-2)Man(a1-3)[Fuc(a1-2)[Gal(a1-3)]Gal(b1-3)GlcNAc(b1-2)Man(a1-6)]Man(b1-4)GlcNAc(b1-4)[Fuc(a1-6)]GlcNAc
Procedure, shortened: as §1

[17] = target: Fuc(a1-2)[Gal(a1-3)]Gal(b1-3)GlcNAc(b1-3)GalNAc
Procedure, shortened: as §1

[18] = target: Fuc(a1-2)[Gal(a1-3)]Gal(b1-3)GlcNAc(b1-6)GalNAc
Procedure, shortened: as §1

[19] = target: Fuc(a1-2)[Gal(a1-3)]Gal(b1-4)Glc
Procedure, shortened: as §1

[20] = target: Fuc(a1-2)[Gal(a1-3)]Gal(b1-4)GlcNAc
Procedure, shortened: as §1

[21] = target: Fuc(a1-2)[Gal(a1-3)]Gal(b1-4)GlcNAc(b1-2)Man
Procedure, shortened: as §1

[22] = target: Fuc(a1-2)[Gal(a1-3)]Gal(b1-4)GlcNAc(b1-2)Man(a1-3)[Fuc(a1-2)[Gal(a1-3)]Gal(b1-4)GlcNAc(b1-2)Man(a1-6)]Man(b1-4)GlcNAc(b1-4)GlcNAc
Procedure, shortened: as §1

[23] = target: Fuc(a1-2)[Gal(a1-3)]Gal(b1-4)GlcNAc(b1-2)Man(a1-3)[Fuc(a1-2)[Gal(a1-3)]Gal(b1-4)GlcNAc(b1-2)Man(a1-6)]Man(b1-4)GlcNAc(b1-4)[Fuc(a1-6)]GlcNAc
Procedure, shortened: as §1

[24] = target: Fuc(a1-2)[Gal(a1-3)]Gal(b1-4)GlcNAc(b1-3)GalNAc
Procedure, shortened: as §1

[25] = target: Fuc(a1-2)[Gal(a1-3)]Gal(b1-4)GlcNAc(b1-3)[Fuc(a1-2)[Gal(a1-3)]Gal(b1-4)GlcNAc(b1-6)]GalNAc
Procedure, shortened: as §1

[26] = target: Fuc(a1-2)[Gal(a1-3)]Gal(b1-4)GlcNAc(b1-6)GalNAc
Procedure, shortened: as §1

[27] = target: Fuc(a1-2)[Gal(a1-3)]Gal(b1-4)[Fuc(a1-3)]Glc
Procedure, shortened: as §1

[28] = target: Fuc(a1-2)[Gal(a1-3)]Gal(b1-4)[Fuc(a1-3)]GlcNAc
Procedure, shortened: as §1

[29] = target: Fuc(a1-2)[Gal(a1-3)]Gal(b1-4)[Fuc(a1-3)]GlcNAc(b1-3)GalNAc
Procedure, shortened: as §1

[30] = target: Fuc(a1-2)[Gal(a1-4)]Gal(b1-4)GlcNAc
Procedure, shortened: as §1

[31] = target: Fuc(a1-2)[GalNAc(a1-3)]Gal
Procedure, shortened: as §1

[32] = target: Fuc(a1-2)[GalNAc(a1-3)]Gal(b1-3)GalNAc(a1-3)[Fuc(a1-2)]Gal(b1-4)GlcNAc
Procedure, shortened: as §1

[33] = target: Fuc(a1-2)[GalNAc(a1-3)]Gal(b1-3)GalNAc(b1-3)Gal(a1-4)Gal(b1-4)Glc
Procedure, shortened: as §1

[34] = target: Fuc(a1-2)[GalNAc(a1-3)]Gal(b1-3)GlcNAc
Procedure, shortened: as §1

[35] = target: Fuc(a1-2)[GalNAc(a1-3)]Gal(b1-3)GlcNAc(b1-2)Man(a1-3)[Fuc(a1-2)[GalNAc(a1-3)]Gal(b1-3)GlcNAc(b1-2)Man(a1-6)]Man(b1-4)GlcNAc(b1-4)GlcNAc
Procedure, shortened: as §1

B1: LCA (Lens culinaris), P02870 (protein)
chain: MASLQTQMISFYLIFLSILLTTIFFFKVNSTETTSFSITKFSPDQKNLIFQGDGYTTKGKLTLTKAVKSTVGRALYSTPIHIWDRDTGNVANFVTSFTFVIDAPSSYNVADEFTFFIAPVDTKPQTGGGYLGVFNSKEYDKTSQTVAVEFDTFYNAAWDPSNKERHIGIDVNSIKSVNTKSWNLQNGERANVVIAFNAATNVLTVTLTYPNSLEEENVTSYTLNEVVPLKDVVPEWVRIGFSATTGAEFAAHEVHSWSFHSELGGTSSSKQAADA
glycan array binding signal (z-score) [1]: -0.223
glycan array binding signal (z-score) [2]: 0.52
glycan array binding signal (z-score) [3]: -0.194
glycan array binding signal (z-score) [4]: -0.217
glycan array binding signal (z-score) [5]: -0.215
glycan array binding signal (z-score) [6]: -0.136
glycan array binding signal (z-score) [7]: -0.211
glycan array binding signal (z-score) [8]: -0.233
glycan array binding signal (z-score) [9]: -0.249
glycan array binding signal (z-score) [10]: -0.223
glycan array binding signal (z-score) (Fuc(a1-2)Gal6S(b1-4)Glc): -0.196
glycan array binding signal (z-score) [11]: -0.212
glycan array binding signal (z-score) (Fuc(a1-2)GlcNAc): -0.239
glycan array binding signal (z-score) (Fuc(a1-2)[Gal(a1-3)]Gal): -0.135
glycan array binding signal (z-score) [12]: -0.199
glycan array binding signal (z-score) [13]: -0.235
glycan array binding signal (z-score) [14]: -0.089
glycan array binding signal (z-score) [15]: -0.228
glycan array binding signal (z-score) [16]: 0.373
glycan array binding signal (z-score) [17]: -0.238
glycan array binding signal (z-score) [18]: -0.194
glycan array binding signal (z-score) [19]: -0.182
glycan array binding signal (z-score) [20]: -0.215
glycan array binding signal (z-score) [21]: -0.213
glycan array binding signal (z-score) [22]: -0.214
glycan array binding signal (z-score) [23]: 0.979
glycan array binding signal (z-score) [24]: -0.22
glycan array binding signal (z-score) [25]: -0.222
glycan array binding signal (z-score) [26]: -0.239
glycan array binding signal (z-score) [27]: -0.22
glycan array binding signal (z-score) [28]: -0.18
glycan array binding signal (z-score) [29]: -0.226
glycan array binding signal (z-score) [30]: -0.217
glycan array binding signal (z-score) [31]: -0.216
glycan array binding signal (z-score) [32]: -0.237
glycan array binding signal (z-score) [33]: -0.193
glycan array binding signal (z-score) [34]: -0.223
glycan array binding signal (z-score) [35]: -0.245
